About 120 (0.25%) of roughly 48,000 compounds were called active. About 4% were inconclusive and are not listed. Calls follow the shape of the dose curve; as a rule, active = well fitted activation curve with a large enough effect; inconclusive = small, poorly fitted or top-dose-only effect, or another doubt; inactive = no such curve, though single readings can be large or run the other way. The list shows a part of the results.

The assay can be described thus: Primary qHTS for Identification of Small Molecule Activators of Huntingtin-Antisense Promoter Activity. Also: nearly all actives have a fitted effect of over 55% in size. The note with it: HEK293 HTT-AS promoter firefly luciferase reporter, 24 h; series mostly up to 57.5 µM; activity change, positive = activation: at the top concentration. Put shortly:
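Quantitative HTS used concentration series of up to 57.5 uM final on HEK293 luciferase reporter cells, 24 h at 37 degrees C. Readout was Dual-Glo firefly luminescence.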
Consider `CC(C)Cc1nn2c(=O)cc(COC(=O)c3ccccc3NC(=O)c3cccs3)nc2s1`, for which the “activity change, positive = activation” value was inactive: -10.6%. As to `COc1ccccc1NC(=O)C1=C(C)Nc2nc(SCc3ccccc3F)nn2C1c1ccncc1` (stereo not drawn), the “activity change, positive = activation” value was inactive: -8.49%. For `CCc1cccc(C)c1NC(=O)C1CCN(c2nnc(C)c3c(C)n(-c4ccccc4)nc23)CC1` the value was inactive: -7.08%; for `Cc1cccc(NC(=O)C2CCN(S(=O)(=O)c3ccc4[nH]c5c(c4c3)CCCCC5)CC2)c1`, inactive: -22%; for `Cc1cc(C)cc(NC(=O)Cn2cc(C(=O)c3ccncc3)c(=O)c3cc(C)c(C)cc32)c1`, inactive: -22.2%. For `COc1ccc(CNC(=O)C2CCN(S(=O)(=O)c3ccc4nc5c(c(C(=O)O)c4c3)CCCC5)CC2)cc1`, the “activity change, positive = activation” value was inactive: -6.08%.

In the case of `CCOc1ccc(NC(=O)CCc2nc3cccnc3n2Cc2ccc(OC)cc2)cc1`, the “activity change, positive = activation” value was inactive: -24.6%.

As for `Cc1ccccc1CN1C(=O)c2ccccc2Sc2ccc(C(=O)O)cc21`, the “activity change, positive = activation” value is inactive: -16.2%. Consider `O=C(O)COCCN1CCN(C(c2ccccc2)c2ccc(Cl)cc2)CC1` (stereo not drawn), for which the activity change, positive = activation entry was “inactive”.

`Cc1ccc(CS(=O)Cc2ccc(C(=O)NCc3ccccc3Cl)o2)cc1` (stereo not drawn): the “activity change, positive = activation” value was inactive: -16.4%.

As to `Cc1ccc(NC(=O)C2CCCN(c3cnccn3)C2)cc1Cl` (stereo not drawn), the “activity change, positive = activation” value was inactive: 3.11%. For `Nc1nnc(SCC(=O)Nc2cccc(F)c2)s1`, the “activity change, positive = activation” value was inactive: -9.09%.

Turning to `O=S(=O)(c1cc(Br)c(Br)s1)N1CCN(c2ccccc2)CC1`, the “activity change, positive = activation” value is inactive: -8.19%. For the molecule `COc1ccccc1C(=O)Nc1cccc(OCc2cc(=O)n3c(C)csc3n2)c1`, the “activity change, positive = activation” value is inactive: -22.2%. For `CC(C)c1ccc(NC(=O)C2CCN(S(=O)(=O)c3ccc(Br)s3)CC2)cc1` the value was inactive: -35%; for `Cc1ccc(S(=O)(=O)c2nnn3c2nc(NCc2ccccc2)c2sccc23)cc1`, inactive: -40.6%; for `CSc1nn(Cc2ccccc2C)c(NC(C)=O)c1S(=O)(=O)c1ccc(C)cc1`, inactive: -13.8%. For `COc1ccc(NC(=O)CCc2nc3c(C)nn(-c4ccc(C)cc4)c3n(C)c2=O)c(OC)c1` the value was inactive: -6.29%; for `CCOC(=O)CCn1c(=O)c2cccn2c2cccnc21`, inactive: -2.09%; for `CCOc1ccc(-c2c(C)nn3c(C)c(C(=O)Nc4cccc(Cl)c4C)cnc23)cc1OCC`, inactive: -4.78%. For `Cc1cc2cc(CCNS(=O)(=O)c3ccc(Br)cc3)c(=O)[nH]c2cc1C` the value was inactive: -18.6%; for `COCCN1Cc2cccc(C(=O)Nc3ccc(C(=O)OC)cc3)c2C1=O`, inactive: -1.08%; for `O=C(CCS(=O)(=O)c1nc(-c2cccs2)cc(C(F)(F)F)n1)Nc1ccc(Br)cc1`, inactive: -53.3%.

Regarding `N[C@@H]1CONC1=O`, the activity change, positive = activation entry is “inactive”.

On to `Cc1ccc2nc(-c3ccsc3)c(Nc3ccc(C(C)C)cc3)n2c1`, for which the “activity change, positive = activation” value is inactive: 9.04%. With `COc1ccccc1C(=O)Nc1ccc2nc(SCC(=O)N3CCCC3)sc2c1`, the “activity change, positive = activation” value was inactive: -4.37%. For `COCCNC(=O)CCCn1c(SCC(=O)c2ccc(F)cc2)nc2c(sc3ccccc32)c1=O` the value was inactive: 0.687%; for `CCCCCn1c(=O)[nH]c2cc(C(=O)N3CCN(c4cccc(Cl)c4)CC3)ccc2c1=O`, inactive: -25.5%; for `Cc1ccccc1NC(=O)c1cc2sccc2n1Cc1ccc(F)cc1`, inactive: -22.1%.

Consider `CN(c1ccccc1)S(=O)(=O)c1nnc(NC(=O)c2ccco2)s1`, for which the “activity change, positive = activation” value is inactive: -1.28%. As for `COc1ccc(OC)c(CNC(=O)c2cc(S(=O)(=O)N3CCC(C)CC3)cn2C)c1`, the figure is inactive: -33.2%; as for `O=C(NC1CCN(Cc2ccccc2)CC1)c1ccc(Cn2c(=O)c3ccccc3n(Cc3ccc(F)cc3)c2=O)cc1`, inactive: -12.6%; as for `Cc1cc(C)cc(Oc2nc3ccccn3c(=O)c2/C=C(\C#N)c2nc3ccccc3s2)c1`, inactive: 2.86% [at 11.5 µM, percent change from vehicle, -100% = no light].

On to `Cc1ccccc1OCCSc1nc2ccc(NC(=O)c3cccs3)cc2s1`, for which the “activity change, positive = activation” value was inactive: -30.2%.

Turning to `Cn1c(=O)cc(SCC(=O)N2CCN(c3ccccc3F)CC2)c2ccc(Cl)cc21`, the “activity change, positive = activation” value was inactive: 11.2%. As for `COCCCNC(=O)CSc1nc2cc3c(cc2c(=O)n1CCCC(=O)NCc1ccc2c(c1)OCO2)OCO3`, the figure is inactive: -13%; as for `CCn1nc(-c2ccccc2)c(-c2ccccc2)c(C(=O)Nc2ccc(NC(C)=O)cc2)c1=O`, inactive: -1.94%; as for `Cc1ccc(Cn2ccnc2SCC(=O)Nc2nnc(C)s2)cc1`, inactive: -15.1%. Turning to `COc1ccc(OC)c(NC(=O)Nc2c(C)n(C)n(-c3ccccc3)c2=O)c1`, the “activity change, positive = activation” value is inactive: -9.85%.

For `Cc1ccc(-c2csc(=Nc3ccccc3)n2Cc2ccc3c(c2)OCO3)cc1`, the “activity change, positive = activation” value was inactive: 9.8%.

Turning to `CCN(CC)S(=O)(=O)c1ccc2c(c1)nc(CN(C)C(=O)Nc1ccc(C)c(F)c1)n2C`, the “activity change, positive = activation” value was inactive: 5.71%. For `CCc1ccccc1NC(=O)CN1C(=O)CCSc2ccc(S(=O)(=O)N3CCCC3)cc21` the value was inactive: -17.3%; for `O=C(OCC1CCCO1)c1ccc2c(c1)N(Cc1ccccc1)C(=O)c1ccccc1S2(=O)=O` (stereo not drawn), inactive: -12.3%. Consider `O=[N+]([O-])c1cncn1CCN1CCOCC1`, for which the “activity change, positive = activation” value is inactive: -2.78%. With `CCc1ccccc1NC(=O)C(C)n1c(=O)cc(C)c2c(C)nn(-c3ccccc3)c21` (stereo not drawn), the “activity change, positive = activation” value was inactive: -6.15%. As for `COC(=O)c1ccc(CSc2nc3c([nH]c4ccccc43)c(=O)n2-c2cccc(Cl)c2)o1`, the figure is inactive: -22.9%; as for `CCOC(=O)C1CCCN(C(=O)Cn2ncc3c4ccccc4n(Cc4ccccc4)c3c2=O)C1` (stereo not drawn), inactive: -24.8%; as for `COc1ccccc1NC(=O)c1cc2c(C)nn(-c3ccccc3)c2s1`, inactive: 1.67% [at 11.5 µM, percent change from vehicle, -100% = no light]. As for `COc1ccc(N2CCN(C(=O)COCc3cc(-c4ccc5c(c4)OCO5)on3)CC2)cc1`, the figure is inactive: -1.7%; as for `COc1ccc(NC(=O)c2sc3nc(C(F)(F)F)cc(C)c3c2N)cc1OC`, inactive: -13.3%. In the case of `Cc1ccc(NC(=O)c2nc(S(C)(=O)=O)ncc2N(Cc2ccco2)Cc2cccs2)cc1C`, the “activity change, positive = activation” value is inactive: -20.7%. As for `CCO/C([O-])=N/c1c[n+](N2CCOCC2)no1`, the “activity change, positive = activation” value is inactive: -0.231%. For `Cc1cccc(NC(=O)CCNS(=O)(=O)c2ccc3c(c2)CCN3C(=O)C2CC2)c1` the value was inactive: -2.73%. Take `CCOC(=O)C1CCN(C(c2ccc(C)cc2)c2c(O)cc(C)n(CCOC)c2=O)CC1` (stereo not drawn): the “activity change, positive = activation” value is inactive: 2.06%. For `CCOc1ccc(-c2cc(CCCC(=O)NCCc3cc(OC)c(OC)c(OC)c3)no2)cc1` the value was inactive: -78.8%. On to `COc1ccc(CCNC(=O)CCCn2nc(C)c3sc4ccccc4c3c2=O)c(OC)c1`, for which the “activity change, positive = activation” value was inactive: -10.5%. As for `CCOc1ccc(NC(=O)Cn2c(=O)n(CCCS(=O)(=O)C3CCCCC3)c(=O)c3ccccc32)cc1`, the “activity change, positive = activation” value was inactive: -3.4%. As for `COC(=O)c1c(C)oc2ccc(N(C(=O)c3ccncc3)S(=O)(=O)c3cc(C)ccc3C)cc12`, the figure is inactive: -38.6%; as for `Cc1ccc(NC(=O)C2CCC(CNS(=O)(=O)c3cccc4nsnc34)CC2)c(Cl)c1` (stereo not drawn), inactive: 10.6% [at 11.5 µM, percent change from vehicle, -100% = no light]; as for `COc1ccc(N2CCN(C(=O)C3CCN(S(=O)(=O)c4cn(C)cn4)CC3)CC2)cc1`, inactive: 2.66%. As for `Cc1cccc(N(C)C(=O)Cc2c(C(=O)O)[nH]c3ccccc23)c1`, the figure is inactive: -11.1%. For `Cc1ccc(-n2ncc3c(N4CCC(Cc5ccccc5)CC4)ncnc32)cc1C` the value was inactive: 10.7%. Take `Cc1ccc(OC(=O)CSc2nnc(-c3ccc4c(c3)OCO4)o2)cc1`: the “activity change, positive = activation” value is inactive: -24.6%. As for `COCCCn1c(-c2ccc(S(=O)(=O)N3CCOCC3)cc2)csc1=Nc1ccccc1`, the figure is inactive: -68.5%. On to `CC1(c2ccc(Cl)cc2)CC(C)(C)N(C(=O)c2cccc(F)c2)c2ccccc21` (stereo not drawn), for which the “activity change, positive = activation” value is inactive: -32.4%.

With `COc1ccc(CNC(=O)c2cc3sccc3n2Cc2ccc(C)cc2)cc1`, the “activity change, positive = activation” value is inactive: 13.1%. As for `O=C(Cc1ccccc1)Nc1sc2c(c1C(=O)Nc1ccc(Br)cc1)CCCC2`, the figure is inactive: -26.4%; as for `Cc1ccc(NC(=O)C2CCN(c3nc(-c4ccc(C(C)C)cc4)no3)CC2)c(Cl)c1`, inactive: -90%; as for `Cc1ccc(C(=O)Oc2cc(-c3ccc4c(c3)OCO4)cc(=O)c3c(C)oc(C)c23)cc1`, inactive: -15.3%. As for `Cc1ccc(C(=O)NC2(C(F)(F)F)N=C(c3ccccc3)N(Cc3ccccc3)C2=O)cc1` (stereo not drawn), the figure is inactive: -22.9%; as for `CCc1c(C)[nH]c2c1C(=O)C(CN1CCOCC1)CC2` (stereo not drawn), inactive: -7.98%. Take `CC(=O)c1ccc(NS(=O)(=O)c2ccc(-n3cccn3)cc2)cc1`: the “activity change, positive = activation” value is inactive: -34.8%. Turning to `CCOc1ccc(CNC(=O)c2cc(-c3ccc(Cl)s3)nc3ccccc23)cc1`, the “activity change, positive = activation” value was inactive: -16%. As for `COc1ccccc1NC(=O)Cn1c(=O)n(CC(=O)NCc2ccccc2Cl)c(=O)c2sccc21`, the figure is inactive: 15.2%. On to `COc1ccc(C(=O)Oc2c(Sc3ccc(C)cc3)c(C)nn2C(C)(C)C)cc1OC`, for which the “activity change, positive = activation” value is inactive: -34.6%. For `O=C(c1ccc2c(c1)N(Cc1ccc(Cl)cc1)C(=O)c1ccccc1S2=O)N1CCCCC1` (stereo not drawn), the “activity change, positive = activation” value was inactive: -31.6%. In the case of `CCN(CC)CCNC(=O)c1cn(CC)c2ccc(S(=O)(=O)N(C)C3CCCCC3)cc2c1=O`, the “activity change, positive = activation” value was inactive: -6.15%. As for `CCC(C(=O)NC1CCCCC1)n1c(SCc2cccc(C)c2)nc2ccncc21` (stereo not drawn), the figure is inactive: -13.3%; as for `COCc1c(Br)c(C)nc2sc3c(=O)n(-c4cccc(Br)c4)nnc3c12`, inactive: -10.4%; as for `N#Cc1ccccc1CSc1nnc2ccc3ccccc3n12`, inactive: 17.5%. For `CC(NC(=O)c1ccco1)c1nc(-c2ccccc2)no1` (stereo not drawn) the value was inactive: -11.8%.

`COc1cc(C(=O)NCCCCCC(=O)O)cc(OC)c1OC`: the “activity change, positive = activation” value is inactive: -5.57%. As to `Cc1cc(=O)n(CC(=O)NC(C)c2ccccc2)c2c1c(C)nn2-c1cccc(F)c1` (stereo not drawn), the “activity change, positive = activation” value is inactive: -18.1%. As for `Nc1ccc([N+](=O)[O-])cc1O`, the figure is inactive: -9.76% [at 116 µM, percent change from vehicle, -100% = no light]. For `CCN1C(=O)c2ccccc2S(=O)(=O)c2ccc(C(=O)NCc3ccc(OC)cc3)cc21` the value was inactive: -15.9%. As to `COC(=O)c1cc(NC(=O)c2sc3ccccc3c2Cl)cc(C(=O)OC)c1`, the “activity change, positive = activation” value was inactive: -3.75%. As for `Cc1cccc(N2CCN(c3ncnc4c3nc3n4CCCCC3)CC2C)c1` (stereo not drawn), the figure is inactive: -92.6%; as for `COC(=O)c1cc2occc2n1CC(=O)Nc1ccc(C)cc1Cl`, inactive: 14.9%; as for `N[C@@H](CCC(=O)N[C@@H](CS)C(=O)NCC(=O)O)C(=O)O`, inactive: -5.21% [at 25.1 µM, percent change from vehicle, -100% = no light]. As for `COc1ccc(-c2nn(-c3ccc(C)cc3)c3c2cnc2ccc(C)cc23)cc1OC`, the figure is inactive: -19.4%; as for `CCCN1CCN(CCCNC(=O)C(CC)n2nc(C)n3c(cc4occc43)c2=O)CC1` (stereo not drawn), inactive: -6.13%; as for `CC1=C(C(=O)O)N2C(=O)[C@@H](NC(=O)[C@H](N)C3=CCC=CC3)[C@H]2SC1`, “inactive”. As for `COc1cccc(NC(=O)c2cc3c(-c4ccc(Cl)cc4)nn(C)c3s2)c1`, the figure is inactive: -20%.

For the origin of these results see PubChem BioAssay AID1508624 (National Center for Advancing Translational Sciences (NCATS), 2021).
